Assay results reported in the antibiotic and cytotoxicity screens of Wong et al. (2023).
The other results are listed elsewhere or left out.

Key:
HSkMC = human skeletal muscle cells; experiment: cytotoxicity call (relative viability < 0.9); conditions: 10 µM
HepG2 = experiment: cytotoxicity call (relative viability < 0.9); conditions: 10 µM
S. aureus RN4220 = experiment: growth inhibition call (relative growth <= 0.2); conditions: 50 µM

COc1ccc(S(=O)(=O)N2C[C@H](O)COC[C@H]3O[C@H](CC(=O)NCCCN4CCOCC4)CC[C@@H]32)cc1
inactive: cytotoxicity call (HSkMC) | cytotoxicity call (HepG2) | growth inhibition call (S. aureus RN4220)

C[C@@H]1CCCCO[C@@H](CN(C)C(=O)Cc2ccccc2)[C@H](C)CN([C@H](C)CO)C(=O)c2cc(NC(=O)Cc3ccccc3)ccc2O1
inactive: cytotoxicity call (HSkMC) | cytotoxicity call (HepG2) | growth inhibition call (S. aureus RN4220)

C[C@H](CO)N1C[C@H](C)[C@H](CN(C)Cc2ccc3c(c2)OCO3)Oc2ccc(NS(=O)(=O)c3cn(C)cn3)cc2C1=O
inactive: cytotoxicity call (HSkMC) | cytotoxicity call (HepG2) | growth inhibition call (S. aureus RN4220)

Cc1[nH]c(=O)[nH]c(=O)c1S(=O)(=O)NCc1ccccn1
inactive: cytotoxicity call (HSkMC) | cytotoxicity call (HepG2) | growth inhibition call (S. aureus RN4220)

C/C=C/c1ccc2c(c1)O[C@@H](CN(C)Cc1ccc(C(=O)O)cc1)[C@H](C)CN([C@@H](C)CO)S2(=O)=O
inactive: cytotoxicity call (HSkMC) | cytotoxicity call (HepG2) | growth inhibition call (S. aureus RN4220)

O=C(C[C@@H]1CC[C@H](NC(=O)C2CC2)[C@H](CO)O1)NCCCN1CCOCC1
inactive: cytotoxicity call (HSkMC) | cytotoxicity call (HepG2) | growth inhibition call (S. aureus RN4220)

C[C@@H]1CN([C@@H](C)CO)C(=O)Cc2cc(NS(=O)(=O)c3cn(C)cn3)ccc2O[C@@H]1CN(C)S(C)(=O)=O
inactive: cytotoxicity call (HSkMC) | cytotoxicity call (HepG2) | growth inhibition call (S. aureus RN4220)

C[C@@H]1CCCCO[C@@H](CN(C)C(=O)Nc2ccc3c(c2)OCO3)[C@H](C)CN([C@H](C)CO)C(=O)c2cc(NC(=O)Cc3ccccc3)ccc2O1
inactive: cytotoxicity call (HSkMC) | cytotoxicity call (HepG2) | growth inhibition call (S. aureus RN4220)

O=S(=O)([O-])CCS.[Na+]
inactive: cytotoxicity call (HSkMC) | cytotoxicity call (HepG2) | growth inhibition call (S. aureus RN4220)

C[C@@H]1ON(c2ccc(C(=O)OC(C)(C)C)cc2)[C@H](c2ccc(Br)cc2)[C@H]1C(=O)N1C(=O)OC[C@H]1Cc1ccccc1
inactive: cytotoxicity call (HSkMC) | cytotoxicity call (HepG2) | growth inhibition call (S. aureus RN4220)
